Measurements reported in PMC4336329 (PLoS ONE, 2015).
Among all 310,000 compounds or so, about 2,200 (0.71%) showed an effect of 50% or more. The effect is printed as a negative number. The list shows a part of the results.

molecular target: human ether-à-go-go-related gene (hERG) potassium channel (human, UniProt Q12809); assay: primary screen, population patch clamp on CHO cells stably expressing hERG
Sequence (Q12809 whole entry, looked up): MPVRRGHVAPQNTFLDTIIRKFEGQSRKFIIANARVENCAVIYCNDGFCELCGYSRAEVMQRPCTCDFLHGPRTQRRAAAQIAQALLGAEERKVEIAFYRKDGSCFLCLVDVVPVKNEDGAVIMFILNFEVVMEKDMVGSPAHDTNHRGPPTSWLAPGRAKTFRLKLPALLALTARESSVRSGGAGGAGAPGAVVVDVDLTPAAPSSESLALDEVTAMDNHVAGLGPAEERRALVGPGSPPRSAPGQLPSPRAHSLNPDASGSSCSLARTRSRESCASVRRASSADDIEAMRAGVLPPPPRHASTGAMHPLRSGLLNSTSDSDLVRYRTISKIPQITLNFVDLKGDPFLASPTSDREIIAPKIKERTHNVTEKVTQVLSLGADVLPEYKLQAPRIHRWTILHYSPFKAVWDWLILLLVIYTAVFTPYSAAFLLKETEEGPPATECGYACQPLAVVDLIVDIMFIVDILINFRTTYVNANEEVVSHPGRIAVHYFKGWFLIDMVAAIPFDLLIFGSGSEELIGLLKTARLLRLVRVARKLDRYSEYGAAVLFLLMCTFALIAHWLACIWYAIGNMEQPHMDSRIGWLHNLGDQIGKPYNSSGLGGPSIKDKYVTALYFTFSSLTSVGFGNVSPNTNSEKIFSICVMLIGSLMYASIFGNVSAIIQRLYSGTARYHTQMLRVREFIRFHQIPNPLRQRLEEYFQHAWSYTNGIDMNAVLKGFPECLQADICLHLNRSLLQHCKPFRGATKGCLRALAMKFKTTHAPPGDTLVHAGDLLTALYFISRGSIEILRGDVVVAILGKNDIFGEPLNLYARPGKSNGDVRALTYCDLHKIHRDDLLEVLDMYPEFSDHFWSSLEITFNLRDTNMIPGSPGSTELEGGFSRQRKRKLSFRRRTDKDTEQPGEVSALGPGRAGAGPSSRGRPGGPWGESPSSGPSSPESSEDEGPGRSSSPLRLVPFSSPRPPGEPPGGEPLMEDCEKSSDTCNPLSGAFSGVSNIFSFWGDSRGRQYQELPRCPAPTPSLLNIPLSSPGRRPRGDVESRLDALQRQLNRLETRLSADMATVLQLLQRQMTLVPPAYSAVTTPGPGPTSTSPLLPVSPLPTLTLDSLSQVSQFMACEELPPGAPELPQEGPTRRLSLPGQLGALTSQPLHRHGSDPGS

Compound	hERG current change (%, negative = inhibition) at 1uM [%]
CC(C)Oc1cccc(C(=O)C2CCCN(Cc3cnn(C(C)C)c3)C2)c1 (stereo not shown)	-5.14
CCC(=O)NCCc1nc2cc(NC(=O)c3ccco3)ccc2n1C	19
Cc1cccc(C(=O)NC2CCN(CC(=O)NCc3ccccc3F)CC2)c1	1.91
COc1ccc2nc(NC(=O)C3CCN(S(=O)(=O)c4cccnc4)CC3)sc2c1	-15.3
CCCCCOc1ccccc1C(=O)NCCC(=O)O	19.8
COc1ccc(CNS(=O)(=O)c2cc3c(cc2Cl)NC(=O)CO3)cc1	-3.85
Cc1cccc(C)c1NC1=NC(=S)N(c2ccccc2)C12CCOC(C)(C)C2 (stereo not shown)	10.7
Cc1cccc(C(=O)OCC(=O)NCc2cccs2)c1	11.9
Cc1nnsc1C(=O)N1CCC(C(=O)c2ccccc2)CC1	11.1
COc1ccc(OC)c(NC(=O)C2CCN(S(=O)(=O)c3cccs3)CC2)c1	-2.62
COc1cccc(CNC(=O)C2CCN(S(=O)(=O)N3CC(C)CC(C)C3)CC2)c1 (stereo not shown)	7.69
C/C(=N\NC(=O)c1ccoc1C)c1cccnc1	15
CCN(CC)C(=O)C12CC3CC(CC(Cl)(C3)C1)C2	8.23
CCOC(=O)c1c(NC(C)=O)sc2c(OC)cccc12	4.3
CC(C)(C)OC(=O)NCc1ccc(CNC(=O)c2nc[nH]c2C(=O)NCc2ccccc2)cc1	12.7
COC(=O)CSc1nc2c(c(C3CC=CCC3)c1C#N)CCC2 (stereo not shown)	13.6
Cc1ccc(CS(=O)(=O)CC(C)(O)c2ccc(Cl)cc2)cc1 (stereo not shown)	5.92
CC(C)=C(NC(=O)c1ccccc1)C(=O)N/N=C/c1ccc(O)cc1	-6.84
Cc1c(OCC(=O)NC(Cc2ccc(Cl)cc2)C(=O)O)ccc2c3c(c(=O)oc12)CCC3 (stereo not shown)	3.19
Cc1ccc(CC2SC(=Nc3ccccc3)N(c3ccccc3)C2=O)cc1 (stereo not shown)	14.1
COc1ccccc1NCC(=O)NNC(C)C(=O)Nc1cccc(Cl)c1 (stereo not shown)	8.78
Clc1ccc(-c2nc3cnccn3c2NC2CCCC2)cc1	4.38
Cc1ccc(NC(=O)CC2NCCNC2=O)cc1 (stereo not shown)	-5.51

Compound	hERG current change (%, negative = inhibition) at 1uM [%]
NC(=O)C(c1ccc(Br)cc1)c1ccc(C(=O)c2ccccc2)cc1 (stereo not shown)	5.64
CC(=O)Nc1ccc(NC(=S)NC(=O)c2ccc(-c3ccccc3)cc2)cc1	13.4
Cc1ccc(C2SCC(=O)N2Cc2ccccc2)cc1 (stereo not shown)	8.4
CC(C)CC(O)C1CCN(C(=O)CCc2nnc(-c3ccccc3)o2)CC1 (stereo not shown)	7.15
Cc1ccc(OCCn2cc(C#N)c3ccccc32)cc1	-0.345
CCOC(=O)N1CCN(S(=O)(=O)c2cccc3nsnc23)CC1	7.05
CC(=O)Nc1ccc(NC(=O)c2ccnn2C)cc1	7.47
CC(=O)c1cccc(NC(=O)COC(=O)c2cccc(N3C(=O)c4ccccc4C3=O)c2)c1	7.09
CCn1c(CSc2ncccn2)nnc1SCC(=O)N1CCCCC1	22.9
NC(=O)c1ccccc1NC(=O)C1CCCO1 (stereo not shown)	9.69
COc1ccc(/C(N)=N/OC(=O)Cc2cccs2)cc1OC	12.2
COc1ccc(S(=O)(=O)N2CCN(C(=O)c3c(C)nn(-c4ccccc4)c3Cl)CC2)cc1	-4.63
C/C(=N\NS(=O)(=O)c1ccccc1)c1ccc2c(c1)OCCO2	0.17
Cc1cccc(NC(=O)CN2C(=O)CCS(=O)(=O)c3ccccc32)c1C	8.34
Cc1cc(N2CCOCC2)ccc1/C=C1\NC(=O)N(Cc2ccccc2F)C1=O	12.7
CC(C)Cn1c(=O)[nH]c(=O)c2c(C(F)(F)F)cc(-c3ccccc3)nc21	6.91
Cc1ccc(N2C(=O)CC(Sc3nc4ccccc4o3)C2=O)cc1Cl (stereo not shown)	13.1
Cc1ccc(S(=O)(=O)N2CC2(C)CCl)cc1 (stereo not shown)	4.4
COC(=O)C1(C(=O)O)Cc2cc([N+](=O)[O-])ccc2N2CCCC21 (stereo not shown)	-7.1
Cc1nn(C2CCS(=O)(=O)C2)c(C)c1CN(C)C(=O)c1ccc(Cl)cc1 (stereo not shown)	2.19
CC(C)C[C@@H](CO)N1CCN(CCCc2ccccc2)CCC1=O	-14
CNC(=O)NCC12CC3CC(CC(C3)C1)C2	3.03
O=C(O)c1cc(Cl)c2ccccc2c1O	11.1

Compound	hERG current change (%, negative = inhibition) at 1uM [%]
Cc1ccc(C(=O)NCC(=O)OCC(=O)c2ccc3c(c2)NC(=O)CO3)cc1C	-0.132
CCCn1nc(CC(=O)OCC)c2ccccc2c1=O	7.27
OCCC1CN(Cc2c(O)ccc3ccccc23)CCN1CCc1ccccc1 (stereo not shown)	3.65
CCC1CCCCN1S(=O)(=O)c1ccc(S(=O)(=O)N(Cc2cccs2)C2CC2)cc1 (stereo not shown)	10.7
CO/N=C/CC(=O)c1ccc(-c2ccccc2)cc1	7.16
O=c1c(Cc2ccc(F)cc2)c(O)ccn1Cc1ccc(F)cc1	8.37
C=CCCC(=O)Nc1ccc(Br)cn1	8.76
CCOC(=O)c1cc2occc2n1CC(=O)N1CCOCC1	11.3
O=C(N/N=C\c1ccc2c(c1)OCO2)c1ccco1	11.8
CCOc1ccc(/C=N/NC(=O)NC23CC4CC(CC(C4)C2)C3)cc1O	13.8
COc1cc(OC)cc(C(=O)Nc2cccc(-c3ccc4nncn4n3)c2)c1	11.2
CCOc1cc(CNn2cnnc2)ccc1OCC(=O)NC1CCCCC1	9.74
CC1(C)C2(C#N)C(N)=NC3(OCCO3)C12C#N (stereo not shown)	19.1
O=C(CCCCCN1C(=O)c2ccccc2C1=O)Nc1ccc(F)cc1	6.37
CCn1cc2nc(SCC(=O)Nc3ccccc3F)n(Cc3ccccc3)c(=O)c2n1	-33.5
O=C(NCc1ccco1)Nc1ccc(Br)cc1	10.9
O=C(CNc1cccc2ccccc12)N/N=C/c1ccc[nH]1	13.5
COc1ccc(-c2nnc(SCC(=O)c3cccs3)n2-c2ccc(Cl)cc2)cc1	6.02
CC1CCCCN1C(=O)CSc1nc2ncccc2[nH]1 (stereo not shown)	11.8
CN(C)c1nc(Oc2ccc(=O)n(-c3ccccc3)n2)nc(N2CCOCC2)n1	11.7
COC(=O)c1ccccc1NS(C)(=O)=O	20
Cc1cc(/C=C2/C(=O)N(C)C(=S)N2C)c(C)n1C1CC1	11.7
Cc1sc2ncn(CC(=O)NCCc3ccccc3)c(=O)c2c1C	0.253

Compound	hERG current change (%, negative = inhibition) at 1uM [%]
COCCNC(=O)C(c1ccc(C)o1)N(Cc1ccco1)C(=O)c1snc(C(N)=O)c1N (stereo not shown)	12.4
COc1ccc(/C=N/NC(=O)c2ccc(Br)cc2)cc1CN1CCOCC1	-23.8
CCOc1ccc(-c2cc(C(=O)N/N=C(\C)c3cccnc3)c3ccccc3n2)c(OCC)c1	18.7
N#Cc1nc(-c2ccc(OCc3ccccc3)cc2)oc1N1CCC(C(N)=O)CC1	11.3
COc1ccc(S(=O)(=O)N(CCc2ccccc2)CC(N)=O)cc1	-2.02
O=C(NCc1ccc2c(c1)OCO2)c1cc(-c2ccc(Cl)cc2Cl)on1	11.9
O=C(NCc1ccc(Cl)cc1)C1CCC(CNS(=O)(=O)c2ccccc2)CC1 (stereo not shown)	1.72
CC1=C(C(=O)OCc2ccccc2)C(c2ccco2)n2ncnc2N1 (stereo not shown)	-4.04
Br.C[C@@H]1NCCc2cc(O)c(O)cc21	7.2
CC(C)NC(=S)N(C)C1(c2ccccc2Cl)CCCCC1=O (stereo not shown)	8.9
CCCCCNC(=O)CSC1=N/C(=C\c2ccc(Cl)c(Cl)c2)C(=O)N1CC	3.28
O=C(CN1C(=O)C2C3C=CC(C3)C2C1=O)NCC1COc2ccccc2O1 (stereo not shown)	9.79
CCCCC(=O)N=c1sc2c(OC)ccc(OC)c2n1C	16.8
CCCn1nc(C(=O)OCC(=O)Nc2cccc(OC)c2)c2ccccc2c1=O	9.3
CS(=O)(=O)N1CCN(c2ccc([N+](=O)[O-])c(NCCN3CCOCC3)c2)CC1	4.78
Cl.O=C(NCCN1CCOCC1)C12CC3CC(C1)CC(c1ccccc1)(C3)C2	9.19
O=C(c1cc(-c2cccnc2)nc2ccccc12)N1CCC2(CC1)OCCO2	-2.46
O=S1(=O)N=C(N(CCO)/N=C/c2ccc(Br)cc2)c2ccccc21	16.9
COc1ccc(OC)c(-n2c(O)c(C=NCCN3CCNCC3)c(=O)[nH]c2=S)c1	16.1
CCOc1ccc(NC(=O)c2cnsn2)cc1	9.01
Cc1cccnc1NC(=O)c1ccc(S(=O)(=O)NCc2ccco2)cc1	14.8
Cc1c(Cl)cccc1NC(=O)C1COc2ccccc2O1 (stereo not shown)	12.3
